{"source": "the supplement of paper PMC8728848", "binders": {"B1": {"name": "PfulAvr4 2 (Pseudocercospora fuligena) (protein)", "chain": "HHHHHHDYKDDDDKAKPIKPFACPPKDFTTTKCQGPVDCLYANPLSCLGYIQCVCDDDACSTATPYAKSCPTGLAWVEKLKRCDGIKKSACPKKMYEGS"}}, "assay_in_all_cases": "glycan array binding signal (z-score within array); higher = stronger binding", "conditions_in_all_cases": "glycan notation: IUPAC condensed, linker removed", "key": {"[1]": {"target": "GalNAc(b1-4)GlcNAc(b1-2)Man", "summary_of_the_method": "(§1)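 The Consortium for Functional Glycomics database supplied 3228 glycan arrays, of which those lacking an available protein sequence were dropped. The binding signal, a within-array Z-score, was averaged across arrays of the same protein sequence and across linkers. Negative scores can be read as non-binding.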"}, "[2]": {"target": "GalNAc(b1-4)GlcNAc(b1-2)Man(a1-3)[GalNAc(b1-4)GlcNAc(b1-2)Man(a1-6)]Man(b1-4)GlcNAc(b1-4)GlcNAc", "summary_of_the_method": "as §1"}, "[3]": {"target": "GalNAc(b1-4)GlcNAc(b1-3)GalNAc(b1-4)GlcNAc", "summary_of_the_method": "as §1"}, "GalNAc(b1-4)GlcNAc6S": {"target": "GalNAc(b1-4)GlcNAc6S", "summary_of_the_method": "as §1"}, "GalNAc(b1-6)GalNAc": {"target": "GalNAc(b1-6)GalNAc", "summary_of_the_method": "as §1"}, "GalNAc3S(b1-4)GlcNAc": {"target": "GalNAc3S(b1-4)GlcNAc", "summary_of_the_method": "as §1"}, "GalNAc3S(b1-4)GlcNAc3S": {"target": "GalNAc3S(b1-4)GlcNAc3S", "summary_of_the_method": "as §1"}, "[4]": {"target": "GalNAc3S(b1-4)[Fuc(a1-3)]GlcNAc", "summary_of_the_method": "as §1"}, "GalNAc4S6S(b1-4)GlcNAc": {"target": "GalNAc4S6S(b1-4)GlcNAc", "summary_of_the_method": "as §1"}, "GalNAc6S(b1-4)GlcNAc": {"target": "GalNAc6S(b1-4)GlcNAc", "summary_of_the_method": "as §1"}, "Glc(a1-4)Glc": {"target": "Glc(a1-4)Glc", "summary_of_the_method": "as §1"}, "[5]": {"target": "Glc(a1-4)Glc(a1-4)Glc(a1-4)Glc", "summary_of_the_method": "as §1"}, "Glc(a1-6)Glc(a1-6)Glc": {"target": "Glc(a1-6)Glc(a1-6)Glc", "summary_of_the_method": "as §1"}, "[6]": {"target": "Glc(a1-6)Glc(a1-6)Glc(a1-6)Glc", "summary_of_the_method": "as §1"}, "Glc(b1-4)Glc": {"target": "Glc(b1-4)Glc", "summary_of_the_method": "as §1"}, "Glc(b1-6)Glc": {"target": "Glc(b1-6)Glc", "summary_of_the_method": "as §1"}, "GlcA(b1-3)Gal": {"target": "GlcA(b1-3)Gal", "summary_of_the_method": "as §1"}, "GlcA(b1-3)GlcNAc": {"target": "GlcA(b1-3)GlcNAc", "summary_of_the_method": "as §1"}, "GlcA(b1-6)Gal": {"target": "GlcA(b1-6)Gal", "summary_of_the_method": "as §1"}, "[7]": {"target": "GlcA3S(b1-3)Gal(b1-4)GlcNAc(b1-2)Man", "summary_of_the_method": "as §1"}, "[8]": {"target": "GlcA3S(b1-3)Gal(b1-4)GlcNAc(b1-3)Gal(b1-4)Glc", "summary_of_the_method": "as §1"}, "[9]": {"target": "GlcNAc(a1-3)Gal(b1-4)GlcNAc", "summary_of_the_method": "as §1"}, "[10]": {"target": "GlcNAc(a1-4)Gal(b1-3)GlcNAc", "summary_of_the_method": "as §1"}, "[11]": {"target": "GlcNAc(a1-4)Gal(b1-4)GalNAc", "summary_of_the_method": "as §1"}, "[12]": {"target": "GlcNAc(a1-4)Gal(b1-4)GlcNAc", "summary_of_the_method": "as §1"}, "[13]": {"target": "GlcNAc(a1-4)Gal(b1-4)GlcNAc(b1-3)Gal(b1-4)Glc", "summary_of_the_method": "as §1"}, "[14]": {"target": "GlcNAc(a1-4)Gal(b1-4)GlcNAc(b1-3)Gal(b1-4)GlcNAc", "summary_of_the_method": "as §1"}, "[15]": {"target": "GlcNAc(a1-4)Gal(b1-4)GlcNAc(b1-3)Gal(b1-4)GlcNAc(b1-3)Gal(b1-4)GlcNAc", "summary_of_the_method": "as §1"}, "[16]": {"target": "GlcNAc(a1-4)Gal(b1-4)GlcNAc(b1-3)Gal(b1-4)[Fuc(a1-3)]GlcNAc(b1-3)Gal(b1-4)[Fuc(a1-3)]GlcNAc", "summary_of_the_method": "as §1"}, "[17]": {"target": "GlcNAc(a1-6)Gal(b1-4)GlcNAc", "summary_of_the_method": "as §1"}, "[18]": {"target": "GlcNAc(b1-2)Gal(b1-3)GalNAc", "summary_of_the_method": "as §1"}, "[19]": {"target": "GlcNAc(b1-2)Man(a1-3)[GlcNAc(b1-2)Man(a1-6)]Man(b1-4)GlcNAc(b1-4)GlcNAc", "summary_of_the_method": "as §1"}, "[20]": {"target": "GlcNAc(b1-2)Man(a1-3)[GlcNAc(b1-2)Man(a1-6)]Man(b1-4)GlcNAc(b1-4)[Fuc(a1-6)]GlcNAc", "summary_of_the_method": "as §1"}, "[21]": {"target": "GlcNAc(b1-2)Man(a1-3)[GlcNAc(b1-4)][GlcNAc(b1-2)Man(a1-6)]Man(b1-4)GlcNAc(b1-4)GlcNAc", "summary_of_the_method": "as §1"}, "[22]": {"target": "GlcNAc(b1-2)Man(a1-3)[GlcNAc(b1-4)][GlcNAc(b1-2)Man(a1-6)]Man(b1-4)GlcNAc(b1-4)[Fuc(a1-6)]GlcNAc", "summary_of_the_method": "as §1"}, "[23]": {"target": "GlcNAc(b1-2)[GlcNAc(b1-4)]Man(a1-3)[GlcNAc(b1-2)Man(a1-6)]Man(b1-4)GlcNAc(b1-4)GlcNAc", "summary_of_the_method": "as §1"}, "[24]": {"target": "GlcNAc(b1-2)[GlcNAc(b1-4)]Man(a1-3)[GlcNAc(b1-4)][GlcNAc(b1-2)Man(a1-6)]Man(b1-4)GlcNAc(b1-4)GlcNAc", "summary_of_the_method": "as §1"}, "[25]": {"target": "GlcNAc(b1-2)[GlcNAc(b1-4)]Man(a1-3)[GlcNAc(b1-4)][GlcNAc(b1-2)[GlcNAc(b1-6)]Man(a1-6)]Man(b1-4)GlcNAc(b1-4)GlcNAc", "summary_of_the_method": "as §1"}, "[26]": {"target": "GlcNAc(b1-2)[GlcNAc(b1-4)]Man(a1-3)[GlcNAc(b1-4)][GlcNAc(b1-2)[GlcNAc(b1-6)]Man(a1-6)]Man(b1-4)GlcNAc(b1-4)[Fuc(a1-6)]GlcNAc", "summary_of_the_method": "as §1"}, "[27]": {"target": "GlcNAc(b1-2)[GlcNAc(b1-6)]Man(a1-6)[GlcNAc(b1-2)Man(a1-3)]Man(b1-4)GlcNAc(b1-4)GlcNAc", "summary_of_the_method": "as §1"}, "[28]": {"target": "GlcNAc(b1-2)[GlcNAc(b1-6)]Man(a1-6)[GlcNAc(b1-2)Man(a1-3)]Man(b1-4)GlcNAc(b1-4)[Fuc(a1-6)]GlcNAc", "summary_of_the_method": "as §1"}, "[29]": {"target": "GlcNAc(b1-2)[GlcNAc(b1-6)]Man(a1-6)[GlcNAc(b1-4)][GlcNAc(b1-2)Man(a1-3)]Man(b1-4)GlcNAc(b1-4)GlcNAc", "summary_of_the_method": "as §1"}, "GlcNAc(b1-3)Fuc": {"target": "GlcNAc(b1-3)Fuc", "summary_of_the_method": "as §1"}, "GlcNAc(b1-3)Gal": {"target": "GlcNAc(b1-3)Gal", "summary_of_the_method": "as §1"}, "[30]": {"target": "GlcNAc(b1-3)Gal(b1-3)GalNAc", "summary_of_the_method": "as §1"}}, "note": "The list shows a part of the results.", "data": [{"binder": "B1", "values": [{"measurement": "glycan array binding signal (z-score)", "setting": "[1]", "value": -0.384}, {"measurement": "glycan array binding signal (z-score)", "setting": "[2]", "value": -0.129}, {"measurement": "glycan array binding signal (z-score)", "setting": "[3]", "value": -0.272}, {"measurement": "glycan array binding signal (z-score)", "setting": "GalNAc(b1-4)GlcNAc6S", "value": -0.205}, {"measurement": "glycan array binding signal (z-score)", "setting": "GalNAc(b1-6)GalNAc", "value": -0.367}, {"measurement": "glycan array binding signal (z-score)", "setting": "GalNAc3S(b1-4)GlcNAc", "value": -0.203}, {"measurement": "glycan array binding signal (z-score)", "setting": "GalNAc3S(b1-4)GlcNAc3S", "value": -0.461}, {"measurement": "glycan array binding signal (z-score)", "setting": "[4]", "value": -0.403}, {"measurement": "glycan array binding signal (z-score)", "setting": "GalNAc4S6S(b1-4)GlcNAc", "value": -0.341}, {"measurement": "glycan array binding signal (z-score)", "setting": "GalNAc6S(b1-4)GlcNAc", "value": -0.276}, {"measurement": "glycan array binding signal (z-score)", "setting": "Glc(a1-4)Glc", "value": 0.168}, {"measurement": "glycan array binding signal (z-score)", "setting": "[5]", "value": -0.123}, {"measurement": "glycan array binding signal (z-score)", "setting": "Glc(a1-6)Glc(a1-6)Glc", "value": 0.073}, {"measurement": "glycan array binding signal (z-score)", "setting": "[6]", "value": 0.132}, {"measurement": "glycan array binding signal (z-score)", "setting": "Glc(b1-4)Glc", "value": 0.518}, {"measurement": "glycan array binding signal (z-score)", "setting": "Glc(b1-6)Glc", "value": 0.175}, {"measurement": "glycan array binding signal (z-score)", "setting": "GlcA(b1-3)Gal", "value": -0.192}, {"measurement": "glycan array binding signal (z-score)", "setting": "GlcA(b1-3)GlcNAc", "value": -0.017}, {"measurement": "glycan array binding signal (z-score)", "setting": "GlcA(b1-6)Gal", "value": -0.241}, {"measurement": "glycan array binding signal (z-score)", "setting": "[7]", "value": -0.283}, {"measurement": "glycan array binding signal (z-score)", "setting": "[8]", "value": -0.468}, {"measurement": "glycan array binding signal (z-score)", "setting": "[9]", "value": -0.292}, {"measurement": "glycan array binding signal (z-score)", "setting": "[10]", "value": -0.417}, {"measurement": "glycan array binding signal (z-score)", "setting": "[11]", "value": -0.388}, {"measurement": "glycan array binding signal (z-score)", "setting": "[12]", "value": -0.432}, {"measurement": "glycan array binding signal (z-score)", "setting": "[13]", "value": -0.369}, {"measurement": "glycan array binding signal (z-score)", "setting": "[14]", "value": -0.149}, {"measurement": "glycan array binding signal (z-score)", "setting": "[15]", "value": -0.366}, {"measurement": "glycan array binding signal (z-score)", "setting": "[16]", "value": -0.234}, {"measurement": "glycan array binding signal (z-score)", "setting": "[17]", "value": -0.377}, {"measurement": "glycan array binding signal (z-score)", "setting": "[18]", "value": -0.258}, {"measurement": "glycan array binding signal (z-score)", "setting": "[19]", "value": -0.208}, {"measurement": "glycan array binding signal (z-score)", "setting": "[20]", "value": -0.107}, {"measurement": "glycan array binding signal (z-score)", "setting": "[21]", "value": -0.252}, {"measurement": "glycan array binding signal (z-score)", "setting": "[22]", "value": -0.341}, {"measurement": "glycan array binding signal (z-score)", "setting": "[23]", "value": -0.282}, {"measurement": "glycan array binding signal (z-score)", "setting": "[24]", "value": -0.195}, {"measurement": "glycan array binding signal (z-score)", "setting": "[25]", "value": -0.386}, {"measurement": "glycan array binding signal (z-score)", "setting": "[26]", "value": -0.352}, {"measurement": "glycan array binding signal (z-score)", "setting": "[27]", "value": -0.231}, {"measurement": "glycan array binding signal (z-score)", "setting": "[28]", "value": -0.061}, {"measurement": "glycan array binding signal (z-score)", "setting": "[29]", "value": -0.281}, {"measurement": "glycan array binding signal (z-score)", "setting": "GlcNAc(b1-3)Fuc", "value": -0.284}, {"measurement": "glycan array binding signal (z-score)", "setting": "GlcNAc(b1-3)Gal", "value": -0.44}, {"measurement": "glycan array binding signal (z-score)", "setting": "[30]", "value": -0.214}]}]}
